# Measurements reported in the supplement of paper PMC12645437, “Orthogonal IMiD-Degron Pairs Induce Selective Protein Degradation in Cells” (ACS Chemical Biology, 2025).
# This is one part of the list.
# Target: no compound (DMSO)
# Assay: log2 fold change of degron read counts, EGFP-low vs EGFP+ sorted cells; higher = lower degron-EGFP level without compound (poor expression or instability)
# Conditions: compound: DMSO control; 18 h
# 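Note: jurkat cells carrying a lentiviral library of mutant zinc finger degrons fused to EGFP plus mCherry, mCherry+ cells FACS sorted, degron abundance counted by next-generation sequencing.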
row,Sequence,log2 fold change of degron read counts
1,FFCEICGRFFTQKGNLLRHIKL,0.404
2,LACPICGFTCTQKGNLLRHIKL,0.736
3,FICPICGAPFTQKGNLLRHIKL,0.489
4,FFCNQCGRRFTQKGNLLRHIKL,0.541
5,FECEICGASFTQKGNLLRHIKL,-1.25
6,FNCEQCGAMFTQKGNLLRHIKL,-1.4
7,FYCNQCGRSFTQKGNLLRHIKL,1.06
8,FLCSVCGHKFTQKGNLLRHIKL,-0.569
9,LICNQCGFGCTQKGNLLRHIKL,0.548
10,FQCEICGHGFTQKGNLLRHIKL,-2.98
11,FGCDVCGAYFTQKGNLLRHIKL,0.0431
12,FHCNVCGAHFTQKGNLLRHIKL,-1.38
13,FACNICGASFTQKGNLLRHIKL,-0.944
14,FQCPICGREFTQKGNLLRHIKL,0.0797
15,FECNVCGASFTQKGNLLRHIKL,-1.82
16,FWCDICGALFTQKGNLLRHIKL,0.67

row,Sequence,log2 fold change of degron read counts
1,FHCPICGRCFTQKGNLLRHIKL,-0.859
2,FRCPICGRKFTQKGNLLRHIKL,-0.738
3,FLCNICGAKFTQKGNLLRHIKL,-1.07
4,FFCPICGRSFTQKGNLLRHIKL,-1.21
5,FGCEICGAVFTQKGNLLRHIKL,-0.662
6,FMCEVCGANFTQKGNLLRHIKL,-1.97
7,FCCDVCGAGFTQKGNLLRHIKL,-2.28
8,LSCNQCGFHCTQKGNLLRHIKL,0.547
9,FTCNQCGAPFTQKGNLLRHIKL,-0.786
10,FGCDVCGAVFTQKGNLLRHIKL,-0.897
11,FLCNQCGHQFTQKGNLLRHIKL,-0.56
12,FSCDVCGAMFTQKGNLLRHIKL,-0.585
13,LNCEICGFGCTQKGNLLRHIKL,0.277
14,FCCDICGANFTQKGNLLRHIKL,-0.925
15,FFCPQCGAWFTQKGNLLRHIKL,1.29
16,FSCEICGRQFTQKGNLLRHIKL,-1.24
